Some of the results follow. At the low end of the ranking, values are background and their order means little.
tested on: MYC (p64) + MAX (p21), in MYC:MAX; assay: protein-binding microarray (anti-MAX antibody); settings: PBM: 15 mM Tris-HCl pH 7.5, 100 mM KCl, 0.075% NP40, 7.5 mM beta-mercaptoethanol, 375 ng/ul BSA, 8 ng/ul poly(dA-dT):(dA-dT), 550 ng complex, 60 min, room …; high values mean tight binding; double strand, one strand shown; sequences stand for … in CCGGC…TTAATAGCTAAGATTACTATATCGACG

Sequence	binding signal (log2 normalized fluorescence)
TGAGTTTGAGTA	-0.31
TGATATTACGTA	0.053
TGACAGTGGGTA	-0.0618
TGACCGTATGTA	0.249
TGATACTTGGTT	0.0375
TGAGTTTCGGTA	-0.062
AGACACGTAGTA	0.616
TGAAAAATCGTA	-0.0731
TGAGCCCCTGTA	-0.043
TGACGAAGAGTA	-0.165
TGATTCCCCGTA	0.0379
TGACGTATAGTA	-0.012
TGAAATCCCGTA	0.0189
TGAGGTTAGGTA	0.0168
TGAAGTACTGTA	0.0078
TGACTATGGGTA	-0.031
TGATACTTCGTA	-0.111
TGATTTGAGGTA	-0.112
TGAAGCATCGTA	0.192
TGACCCCTGGTA	0.17
TGAGAGGGAGTA	-0.0996
TGACACTGAGTA	-0.109
TGAGCTCTAGTA	-0.139

Sequence	binding signal (log2 normalized fluorescence)
TGAAGCCGTGTA	0.27
TGAATATTCGTA	-0.137
TGAACTCTGGTA	-0.0337
TGAGTAAGCGTA	-0.0992
TGAGACGCTGTA	-0.0254
TGATACACGGTA	0.262
TGACACGCGGTC	1.03
TGAAAATTTGTA	-0.238
TGAACAGCTGTA	0.249
TGAACCAACGTA	0.302
TGAAACGTGGAA	0.519
TGAAAATGAGTA	0.215
TGATACTTGGTA	0.0376
TGACACTTGCTA	0.538
GCGTGCTAGTGA	0.774
TGAATTGATGTA	0.0418
TGATTAATTGTA	-0.217
TGATTATATGTA	-0.0492
TGATCAAGCGTA	0.0726
TGAGATAAAGTA	-0.28
TGACACGTTAGA	0.482
TGAAAGCCCGTA	0.0543
TGAGGCCGAGTA	-0.0913

Sequence	binding signal (log2 normalized fluorescence)
TGAGCGACGGTA	-0.0101
TGACGTTAGGTA	0.206
TGAAGACAAGTA	0.102
TGAGAAACCGTA	0.0763
TGACACGTGCAG	0.746
TGCACCGTGGTA	0.506
TGACCTTATGTA	0.341
TGACACGGGATA	0.287
TGACTGCAGGTA	-0.00807
TGATGCGCGGTA	0.198
TGAATATAAGTA	-0.206
TGAAACCAAGTA	0.0737
TTTGGTAAGTAG	-0.178
TGACACGTGTCG	0.947
TGACGCAATGTA	0.279
TGACACCTGGTG	0.409
TGAACGATGGTA	-0.0668
TGACACGTGCGG	0.707
TGATGAATGGTA	0.279
TGATGTCACGTA	0.201
TGACACGAACTA	0.476
TGAAATTCTGTA	-0.159
TGAACCTTGGTA	-0.012

Sequence	binding signal (log2 normalized fluorescence)
TGATGCCGGGTA	-0.0843
TGATACACTGTA	0.202
TGAAAGATTGTA	-0.0655
TGAAAATCTGTA	-0.1
TGACTACCTGTA	0.224
TGAAGGGTTGTA	0.00834
TGATACCTGCTA	0.035
TGATATATAGTA	-0.0329
TGACGCTGCGTA	0.0697
TGATTATCCGTA	-0.136
TGACTCATTGTA	0.249
TGAAGAACCGTA	0.0987
AGACACGCGATA	0.437
TGACTAGGCGTA	0.00532
TGATGCTGAGTA	-0.0723
TGAGACACAGTA	0.116
TGATAGAATGTA	0.0693
TGAAAAGTTGTA	-0.0404
TGATCATAGGTA	0.0899
ACACACGTGGTA	0.804
TGATGTCCCGTA	0.0937
TGATACCTAGTA	-0.122
TGACTGTGGGTA	-0.0687

Sequence	binding signal (log2 normalized fluorescence)
TGACCCGTAGTA	0.177
TGAGCCACAGTA	0.145
TGAATATTTGTA	-0.164
TGATGTGGAGTA	0.148
TGACCTTCTGTA	0.139
TGACTACTTGTA	0.0872
TGATCGGCCGTA	-0.0788
TAACACGAGGTA	0.776
TGAGAGACCGTA	0.0127
TGACACGCACTA	0.532
TGATACCTCGTA	0.199
TGAACCGATGTA	0.0618
TGAACGCCTGTA	0.351
TGAGCACCTGTA	0.293
TGACTCAGGGTA	0.123
TGATCCGCGGTA	0.108
TGACCGCCGGTA	-0.0102
TGACACGTGGTG	0.534
TGAATCACCGTA	0.124
TGAGGACTTGTA	-0.00169
TGAGTTTGGGTA	-0.286
TGACAGGTGGCA	0.531
TGACTTAGCGTA	-0.0142

Sequence	binding signal (log2 normalized fluorescence)
TGATGTCATGTA	0.23
TGACGCCTAGTA	-0.0648
TGAATTACAGTA	0.0443
TGAAGTTCCGTA	0.0203
TGACACGCGGAA	0.709
TGACTGTCAGTA	0.183
TGATGTCGAGTA	0.132
TGACAGCCGGTA	0.0702
TGATGTCTGGTA	0.207
TGAAGAAGCGTA	0.18
TGACACTATGTA	0.213
TGATCCGAAGTA	-0.239
TGAGCTATCGTA	-0.142
TGATAGTAAGTA	-0.14
TGATTTACTGTA	-0.069
TGACAAAGGGTA	0.108
TGAAACGCGGTA	0.467
TGACACGAGGCA	0.549
TGAAATTCAGTA	-0.0395
TGACTCTTAGTA	-0.0432
TTACACGGGGTA	0.512
TGAACAGATGTA	0.206

From article PMC5515408
